Experimental data from PubChem BioAssay AID488969 (Vanderbilt High Throughput Screening Facility, 2010).
In all, about 110,000 compounds were measured (“z-score”: median about -0.1, highest 2% from about 2 on). This is one part of the list. The source made the active and inactive calls.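 Rule for the calls: active = z-score in the third read window above 3 or below -3; inactive = the rest.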

biological target: Metabotropic glutamate receptor 8 (Rattus norvegicus) (UniProt P70579); assay: mGluR8 Gi/Go-coupled signaling modulation – cell-based, rat, thallium flux, HTS, primary screen (AID 488969); conditions: HEK293 rat mGluR8, GIRK (G protein-gated inwardly rectifying potassium channel) thallium flux, FluoZin2; at 10 µM; stronger effect = higher value; submaximal glutamate (EC20) added with thallium
Sequence of UniProt P70579 (P70579 whole entry, looked up): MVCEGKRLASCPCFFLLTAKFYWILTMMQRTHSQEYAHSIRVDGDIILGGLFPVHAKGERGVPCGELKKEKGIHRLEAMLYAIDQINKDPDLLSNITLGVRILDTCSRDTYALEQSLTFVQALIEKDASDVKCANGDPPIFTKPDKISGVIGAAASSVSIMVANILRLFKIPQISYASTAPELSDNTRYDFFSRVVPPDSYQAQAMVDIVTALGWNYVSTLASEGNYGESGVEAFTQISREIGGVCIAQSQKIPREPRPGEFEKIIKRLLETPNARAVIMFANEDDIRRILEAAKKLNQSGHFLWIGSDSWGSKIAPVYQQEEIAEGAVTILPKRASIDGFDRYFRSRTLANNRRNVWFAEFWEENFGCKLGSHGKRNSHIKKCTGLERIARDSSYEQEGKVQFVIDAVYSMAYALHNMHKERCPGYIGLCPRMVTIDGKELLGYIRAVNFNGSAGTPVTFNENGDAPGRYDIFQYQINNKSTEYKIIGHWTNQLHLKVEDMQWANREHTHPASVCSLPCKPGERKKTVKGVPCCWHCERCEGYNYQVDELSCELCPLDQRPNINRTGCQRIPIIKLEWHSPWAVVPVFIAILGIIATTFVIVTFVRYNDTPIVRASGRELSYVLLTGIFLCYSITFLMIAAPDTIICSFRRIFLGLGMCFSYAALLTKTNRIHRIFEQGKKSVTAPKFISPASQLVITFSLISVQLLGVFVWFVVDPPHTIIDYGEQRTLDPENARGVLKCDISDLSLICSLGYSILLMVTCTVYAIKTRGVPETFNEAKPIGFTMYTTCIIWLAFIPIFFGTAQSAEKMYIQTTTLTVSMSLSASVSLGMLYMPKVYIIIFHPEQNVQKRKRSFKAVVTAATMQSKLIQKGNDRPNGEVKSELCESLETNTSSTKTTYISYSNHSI

| Structure (SMILES) | z-score |
| --- | --- |
| Oc1cnc2ccccc2c1CN1CCOCC1 | -0.0791 |
| CC[C@H](C)[C@H](NS(=O)(=O)c1ccc(C)cc1)C(=O)N1CCC(C(=O)N[C@H](C(=O)O)C(C)C)CC1 | -0.226 |
| Cc1ccccc1/C=C\c1nc2ccccc2c(=O)n1Cc1ccccc1 | -0.398 |
| COc1ccc(C(=O)N2CCCCC2)cc1S(=O)(=O)Nc1cccc(C(=O)O)c1 | -0.158 |
| COCCN(C(=O)Cn1nnc2ccccc21)C(C(=O)NC1CCCCC1)c1ccc(OC)cc1OC (configuration not stated) | -0.181 |
| COc1ccc(C(=O)Nc2cccc([N+](=O)[O-])c2)cc1Br | -0.00461 |
| O=C(CNC(=O)c1ccc(Cl)cc1Cl)OCc1nc2ccccc2s1 | -0.264 |
| c1ccc(CNc2nc(N3CCOCC3)nc(N3CCOCC3)n2)cc1 | 0.936 |
| O=C(CSc1nnc(CNc2ccccc2)o1)N1CCN(C(=O)c2ccco2)CC1 | -0.381 |
| O=C(Cc1cccs1)N1CCN(c2ccccn2)CC1 | 0.0578 |
| COC(=O)N1CCN(S(=O)(=O)c2ccc(F)cc2)CC1 | -0.221 |
| CS/C(=N\S(=O)(=O)c1ccccc1)c1ccccc1 | -0.29 |
| CC(=O)c1ccc(OCCCC(=O)NCC(c2ccco2)N(C)C)cc1 (configuration not stated) | 0.0767 |
| N#CCSc1nnc(Cc2ccc3c(c2)OCO3)o1 | -0.249 |
| CCc1ccc(C2C(C#N)=C(N)N(N(C)C)C3=C2C(=O)CCC3)s1 (configuration not stated) | -0.236 |
| Cc1c(NC(=O)c2cccs2)cccc1C(=O)O | -0.0535 |
| Cc1cccc(NC(=O)c2cc(NC(=O)C3CC=CCC3C(=O)O)ccc2N2CCOCC2)c1 (configuration not stated) | -0.0948 |
| CCOC(=O)C1C(C)=C(Nc2ccc(OC)cc2)C(=O)N1c1ccc(OC)cc1 (configuration not stated) | -0.098 |
| COc1ccc(C(C)NC(=O)Cc2ccc(Br)cc2)cc1 (configuration not stated) | -0.109 |
| CCOc1ccc(OCCCN(C)C)cc1 | -0.326 |
| O=c1ccc(Br)c[nH]1 | 0.762 |
| C/C(Cc1ccccc1)=N\NC(=O)CNC(=O)c1ccccc1Br | -0.177 |
| Cc1cc([N+](=O)[O-])ccc1NC(=S)NC(=O)C(c1ccccc1)c1ccccc1 | 0.175 |

| Structure (SMILES) | z-score |
| --- | --- |
| Cc1cc(C)n(-c2ncc(-c3ccccc3)nn2)n1 | -0.466 |
| N#CCSCC(=O)Nc1ccccc1 | 0.075 |
| O=C(O)CCCC(=O)N1CCN(C(c2ccccc2)c2ccccc2)CC1 | -0.256 |
| Cc1ccc(SCCNS(=O)(=O)c2ccc(F)cc2)cc1 | 0.0299 |
| O=C(O)CCC(NS(=O)(=O)c1ccc(-c2ccccc2)cc1)C(=O)O (configuration not stated) | -0.062 |
| O=C(NCCN1CCOCC1)c1cc(-c2ccccc2)on1 | -0.258 |
| CSC1=C(C#N)C(c2ccc(C)cc2)C2=C(CCCC2=O)N1 (configuration not stated) | -0.0937 |
| CCOc1ccccc1N1CC(C(=O)N2CCc3ccccc3C2)CC1=O (configuration not stated) | -0.0685 |
| O=C(O)CNc1nc(-c2ccccc2)c2cc([N+](=O)[O-])ccc2n1 | -0.683 |
| O=C1C=C(Nc2cccc(O)c2)CC(c2ccco2)C1 (configuration not stated) | 0.0554 |
| Cc1ccc(CNc2nc(N)c([N+](=O)[O-])c(Nc3ccc(F)cc3)n2)cc1 | -0.336 |
| Cc1cccc(-c2nc(Nc3ccc(N4CCOCC4)cc3)c3ccccc3n2)c1 | -0.232 |
| Cc1ccccc1S(=O)(=O)Nc1cccnc1 | -0.0103 |
| COc1ccc(CCn2c(=O)[nH]c3cc(C(=O)NCCc4ccccc4)ccc3c2=O)cc1OC | -0.127 |
| O=C1CCN(C(=O)Nc2ccccc2Cl)N1 | 0.00385 |
| CCOc1cccc2cc(C(=O)N3CCN(C/C=C/c4ccccc4)CC3)c(=O)oc12 | -0.692 |
| CC(=O)N1CCN(C(=O)CCc2c[nH]c3ccccc23)CC1 | 0.594 |
| CC(=O)N(CN1C(=O)CCC1=O)c1cccc(Cl)c1 | -0.0175 |
| Cc1nc(N2CCC(C)CC2)c2nnn(Cc3ccccc3)c2n1 | -0.442 |
| COc1ccc(C(=O)/C=C/c2ccc(F)cc2)c(OC(=O)c2ccc([N+](=O)[O-])cc2)c1 | -0.0758 |
| C/C(CCc1ccco1)=N/NC(=O)CCC(=O)Nc1cccc(Cl)c1 | -0.196 |
| Cc1ccc(CSCc2nnc(SCC(=O)N3CCN(c4ccccc4)CC3)n2C)cc1 | 0.00269 |
| O=C(NCc1cccnc1)C(=O)NCC(c1ccco1)N1CCN(c2ccccc2)CC1 (configuration not stated) | -0.0621 |

| Structure (SMILES) | z-score |
| --- | --- |
| CCOc1ccccc1-n1c(CN2CCN(C(=O)c3ccco3)CC2)nc2ccccc2c1=O | -0.108 |
| COC(=O)c1cccc(C(=O)Nc2ccc(C)cc2Br)n1 | 0.0996 |
| Cc1cccc2nc(CSC(=N)N)c(Br)n12 | 0.209 |
| Nc1c(S(=O)(=O)c2cccs2)c2nc3ccccc3nc2n1/N=C/c1cccc(O)c1 | 0.0879 |
| CCC(C)Sc1nnc(CSc2nc3nc(C)cc(C)n3n2)o1 (configuration not stated) | -0.13 |
| Fc1cccc(NCc2ccoc2)c1 | -0.372 |
| Cc1cc(-c2ccco2)n(CC(=O)NCc2ccco2)n1 | -0.337 |
| NC(=S)Nn1c(-c2ccccc2)nc2ccccc2c1=O | 0.00478 |
| COc1ccc(-c2cc(C(F)(F)F)n3nc(N)nc3n2)cc1 | -0.178 |
| O=C(NCCc1ccccc1)C1CCCN(S(=O)(=O)c2cccc3nonc23)C1 (configuration not stated) | 0.0776 |
| O=C(NCc1cccnc1)c1cccc(S(=O)(=O)N2CCOCC2)c1 | -0.15 |
| CN(C)c1cccc(N=C2C=C(N3CCOCC3)CC(C)(C)C2)c1 | 2.3 |
| O=C(NCC1COc2ccccc2O1)c1cn(Cc2ccc(F)cc2)nn1 (configuration not stated) | -0.866 |
| Cc1ccc(S(=O)(=O)N2CCCCC2)cc1NC(=O)c1ccc2c(=O)n3c(nc2c1)CCCCC3 | -0.354 |
| Cc1ccccc1S(=O)(=O)Nc1nc2ccccc2nc1N1CCc2ccccc2C1 | -0.128 |
| CCOC(=O)c1ccc(Cn2c(-c3ccccc3)nnc2-c2ccccc2)o1 | -1.13 |
| O=C(c1ccccc1)c1coc2ccc(O)c(CN3CCOCC3)c12 | 1.96 |
| CSc1ccccc1-c1nnc(-c2ccc(Cl)cc2)o1 | 0.109 |
| O=C(CCN1C(=O)c2ccccc2C1=O)Nc1ccc(-c2nc3ccccc3o2)cc1 | -0.0516 |
| CCn1ncc(/C=N/NS(=O)(=O)c2ccc(Cl)cc2)c1C | -0.0325 |
| OCCN(Cc1ccccc1)Cc1ccccc1F | -0.279 |
| CCN(CC)S(=O)(=O)c1ccc(N2CCOCC2)c(NC(=O)C(=O)c2c(-c3ccccc3)cc3ccccn23)c1 | -0.54 |
| Cc1ccc(CNC(=O)CCCNC(=O)c2ccc(Cl)cc2)n1C | -0.357 |

| Structure (SMILES) | z-score |
| --- | --- |
| C/C(Nc1cccc(F)c1)=C(/C#N)C(N)=O | 0.931 |
| CC1=CC(=O)OC1Cc1ccncc1 (configuration not stated) | active: 14.2 |
| COc1ccc2[nH]c(=O)c(CN(C)C(=O)c3ccncc3)cc2c1 | -0.15 |
| COc1ccccc1NC(=O)C1=C(C)Nc2nnnn2C1c1ccccc1OC (configuration not stated) | -0.0172 |
| CC(C)CN(C#N)c1nc(N2CCOCC2)nc(N2CCOCC2)n1 | -0.256 |
| CC(=O)c1ccc2c3c(cccc13)CC2 | 0.21 |
| O=C(O)CSc1nc2ccccc2c(=O)[nH]1 | 0.114 |
| C=CCN(c1ccccc1)S(=O)(=O)c1ccc2c(c1)oc(=O)n2C | -0.132 |
| CCOC(=O)CC(=O)CSc1ccc2nnc(-c3ccc(C)cc3)n2n1 | -1.86 |
| O=C1Nc2cc(Cl)c(Cl)cc2N(O)N1c1ccc(Cl)cc1 | -0.281 |
| NC(=O)C1CCN(C(=S)c2cccs2)CC1 | 0.00443 |
| COC(=O)c1cn(NC(=O)CCC2CCCC2)c(=O)c2ccccc12 | 0.868 |
| CCC1CCCCN1C(=O)N[C@@H](Cc1ccccc1)C(=O)O (some centres not stated) | 0.552 |
| Cc1ccc2nc(Nc3nc(CSc4nc5ccccc5s4)cc(=O)[nH]3)nc(C)c2c1 | 0.227 |
| CCN(Cc1ccccc1)c1ccc(/C=N/NS(=O)(=O)c2ccc(C)c([N+](=O)[O-])c2)cc1 | -0.347 |
| O=C(Nc1cnccn1)c1cccc(C(F)(F)F)c1 | 0.246 |
| O=c1c2c(nc3nc(CCc4ccccc4)[nH]n13)CCC2 | -1.58 |
| CCOC(=O)C1CCN(c2c([N+](=O)[O-])c(C(Cl)Cl)nn2-c2ccccc2)CC1 | 0.474 |
| CNCC(=O)Nc1c(C)n[nH]c1C | -0.193 |
| O=C1c2ccccc2NC(c2ccc(O)cc2)N1/N=C/c1ccc(O)cc1 (configuration not stated) | -0.272 |
| Cn1c(=O)[nH]c(=O)c2c1nc(N1CCCC1)n2CCCSc1nnnn1-c1ccccc1 | 0.537 |
| CC(C)c1cccc(C(C)C)c1NC(=O)CNCc1ccccc1F | -0.0869 |
| COc1cc(C(=O)NCC(C)C)c([N+](=O)[O-])cc1OC | -0.183 |

| Structure (SMILES) | z-score |
| --- | --- |
| COCCN1CN(S(=O)(=O)c2ccc(Cl)cc2)c2nc3ccccc3nc21 | -0.539 |
| O=C(Nc1ccc2ccccc2c1)/C(=C/c1cccc(Br)c1)NC(=O)c1ccco1 | -0.0641 |
| COc1cccc(OC)c1NC(=O)CN1CCC(NC(=O)c2cccc(F)c2)CC1 | -0.0108 |
| COc1cccc(/C=N/NC(=O)CNC(=O)c2ccc3c(c2)OCCO3)c1O | -0.139 |
| Cc1ccc(C2C(C(=O)c3cccs3)=C(O)C(=O)N2CCN2CCOCC2)o1 (configuration not stated) | 0.174 |
| Cc1ccc(CCC(=O)Nc2ncc(Cc3cccc(Cl)c3Cl)s2)o1 | -0.175 |
| CCN(CC)Cc1c(O)c(Cl)cc2c(C)c(C)c(=O)oc12 | -0.0688 |
| CC1CCN(C(=O)Cc2nn(C)c(=O)c3ccccc23)CC1 | 0.733 |
| Cc1ccc(-c2nnn(C(C)C(=O)N3c4ccccc4CCc4ccccc43)n2)cc1 (configuration not stated) | -0.284 |
| CCN1CCN(C(=O)CN2C(=O)c3cccc4cccc2c34)CC1 | -0.191 |
| COc1ccc(-c2[nH]ncc2/C=C(/C#N)C(=O)NC2CCCCC2)cc1 | -0.277 |
| Cc1cc(C(=O)CSc2nc3ccccc3n2CCC#N)c(C)n1Cc1cccs1 | 0.0321 |
| O=C(N/C(=C/c1ccc(Cl)cc1)c1nc2ccccc2[nH]1)c1ccco1 | -0.23 |
| CCOc1cc(/C=N/NC(=O)C(=O)NC2CC2)cc(Br)c1O | 0.0856 |
| COC(=O)c1nc(-c2ccccc2)n[nH]1 | -0.231 |
| Cc1cccc(C)c1NC(=O)C1CCCN(CCCc2ccccc2)C1 (configuration not stated) | 0.106 |
| COc1cc(-c2n[nH]c(=O)o2)cc(OC)c1OC | -0.304 |
| Nc1ncnc2c1ncn2CCN1CCCCC1 | 0.406 |
| CCc1ccc(C(=O)/C=C/NCc2ccc(F)cc2)cc1 | -0.104 |
| O=C(Nc1ccc2nc(-c3ccc(Br)o3)[nH]c2c1)c1ccco1 | -0.408 |
